In PubChem BioAssay (NCI):
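How tested: cells in 96-well plates exposed to compound for 48 hours at five concentrations. At the GI50, growth is halved.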 A number of entries come with more than one value. The list is limited to them. An entry can have further records. For some assays here: The tests behind the records often covered other concentration ranges, not given here; some values may only mark the edge of a range. For some assays here: Values given together repeat one measurement (runs, samples, wells, individuals or studies). What stands in brackets tells the records apart. Letters count within one entry.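 TGI: concentration producing complete growth inhibition.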 *1 amine or outer side, *2 acyl side, *3 side chain or, on linkers, in order; H or OH if unused. Where a SMILES comes first, the peptide text is derived from it. Bridges are numbered along the chain shown (N, C = ends). Roman numbers before positions name the chains, in order. [ ]: non-standard residue; d: D form. Actinocin(9to1) = Cc1c2oc3c(C)ccc(C(=O)[*:1])c3nc-2c(C(=O)[*:2])c(N)c1=O; NMeF = CN[CH](Cc1ccccc1)C(=O)O; Sar = CNCC(=O)O

Experiments:
Assay in all cases: growth of human tumour cells (NCI), 48 h
K-562 leukemia = tested on: K-562 leukemia
NCI/ADR-RES ovarian = tested on: NCI/ADR-RES ovarian
NCI-H226 lung = tested on: NCI-H226 lung
RPMI-8226 leukemia = tested on: RPMI-8226 leukemia
NCI-H23 lung = tested on: NCI-H23 lung
HOP-62 NSCLC = tested on: HOP-62 NSCLC
MOLT-4 leukemia = tested on: MOLT-4 leukemia
A549 NSCLC = tested on: A549 NSCLC
IGROV1 ovarian = tested on: IGROV1 ovarian
UACC-257 melanoma = tested on: UACC-257 melanoma
HT29 colon = tested on: HT29 colon
SN12C renal = tested on: SN12C renal
KM12 colon = tested on: KM12 colon
SK-OV-3 ovarian = tested on: SK-OV-3 ovarian
UO-31 renal = tested on: UO-31 renal
MDA-MB-231 breast = tested on: MDA-MB-231 breast
SNB-19 CNS = tested on: SNB-19 CNS
LOX IMVI melanoma = tested on: LOX IMVI melanoma
SW-620 colon = tested on: SW-620 colon
U251 CNS = tested on: U251 CNS
CCRF-CEM leukemia = tested on: CCRF-CEM leukemia
HCC-2998 colon = tested on: HCC-2998 colon
SK-MEL-2 melanoma = tested on: SK-MEL-2 melanoma
NCI-H522 lung = tested on: NCI-H522 lung
MALME-3M melanoma = tested on: MALME-3M melanoma
NCI-H460 lung = tested on: NCI-H460 lung
RXF 393 renal = tested on: RXF 393 renal

**Q.** With `CN(C)/N=N/c1nc[nH]c1C(N)=O` as the molecule, how does the TGI (K-562 leukemia) read?
**A.** 80.4 µM and > 1 mM

**Q.** And the TGI (NCI/ADR-RES ovarian)?
**A.** 99.7 µM and > 1 mM

**Q.** And the TGI (NCI-H226 lung)?
**A.** 99.7 µM and > 1 mM

**Q.** And the TGI (RPMI-8226 leukemia)?
**A.** 90.4 µM and > 1 mM

**Q.** And the TGI (NCI-H23 lung)?
**A.** 99.4 µM and > 1 mM

**Q.** And the TGI (HOP-62 NSCLC)?
**A.** 84.7 µM and > 861 µM

**Q.** What about the TGI (MOLT-4 leukemia) of the same molecule?
**A.** 79.8 µM and > 911 µM

**Q.** What about the TGI (A549 NSCLC) of the same molecule?
**A.** 99.7 µM and > 1 mM

**Q.** What about the TGI (IGROV1 ovarian) of the same molecule?
**A.** 78.3 µM and > 1 mM

**Q.** What does the source list for `Cc1c2oc3c(C)ccc(C(=O)NC4C(=O)NC(C(C)C)C(=O)N5CCCC5C(=O)N(C)CC(=O)N(C)C(Cc5ccccc5)C(=O)OC4C)c3nc-2c(C(=O)NC2C(=O)NC(C(C)C)C(=O)N3CCCC3C(=O)N(C)CC(=O)N(C)C(Cc3ccccc3)C(=O)OC2C)c(N)c1=O` (stereo not drawn) (I: TVP[Sar][NMeF] / II: TVP[Sar][NMeF]; ester I:1-I:C, II:1-II:C; linker I:N-II:N via Actinocin(9to1); configuration not given here)?
**A.** TGI (UACC-257 melanoma): < 10 nM [sample A] and 127 nM [sample B]; GI50 (NCI/ADR-RES ovarian): < 20.4 nM [sample A, mean of 2 tests] and 355 nM [sample B, mean of 2 tests]; TGI (NCI-H226 lung): < 10 nM [sample A] and > 203 nM [sample B]; TGI (HT29 colon): 2.51 µM [sample A, 1 test] and 29.6 nM [sample B, mean of 2 tests]; TGI (SN12C renal): < 10 nM [sample A, 1 test] and 126 nM [sample B, mean of 2 tests]; TGI (KM12 colon): < 10 nM [sample A] and 307 nM [sample B]; TGI (SK-OV-3 ovarian): < 18.7 nM [sample A] and > 267 nM [sample B]; TGI (UO-31 renal): < 11.8 nM [sample A, mean of 2 tests] and 446 nM [sample B, mean of 2 tests]; TGI (MDA-MB-231 breast): < 10 nM [sample A, 1 test] and > 435 nM [sample B, mean of 2 tests]; TGI (IGROV1 ovarian): < 10 nM [sample A, mean of 2 tests] and > 1 µM [sample B, 1 test]

**Q.** `CNCCN=c1ccc2c3c1c(O)c1c(O)ccc(=O)c1c3[nH]n2CCNCCO` was tested. Which TGI (SNB-19 CNS) did it give?
**A.** 23.5 µM [mean of 3 tests] and 845 nM [mean of 9 tests]

**Q.** And the TGI (LOX IMVI melanoma)?
**A.** 67.7 µM [mean of 4 tests] and 3.36 µM [mean of 5 tests]

**Q.** And the TGI (SW-620 colon)?
**A.** 4.62 µM, 5.93 µM, 5 mM

**Q.** And the GI50 (U251 CNS)?
**A.** 22 nM [mean of 10 tests] and 0.989 nM [mean of 4 tests]

**Q.** What about the GI50 (CCRF-CEM leukemia) of the same molecule?
**A.** 71.7 nM [mean of 2 tests] and 0.999 nM [mean of 5 tests] and 32.5 nM [mean of 8 tests]

**Q.** What about the TGI (CCRF-CEM leukemia) of the same molecule?
**A.** 14.3 µM [mean of 2 tests] and 937 nM [mean of 8 tests]

**Q.** What about the GI50 (HCC-2998 colon) of the same molecule?
**A.** 577 nM [mean of 4 tests] and 0.672 nM [mean of 5 tests]

**Q.** And the GI50 (HOP-62 NSCLC)?
**A.** 62.6 nM [mean of 3 tests] and 0.482 nM [mean of 5 tests]

**Q.** What about the TGI (HOP-62 NSCLC) of the same molecule?
**A.** 0.874 nM, 117 nM, 113 nM

**Q.** What about the GI50 (SK-MEL-2 melanoma) of the same molecule?
**A.** 693 nM [mean of 2 tests] and 0.119 nM [mean of 3 tests] and 2.05 µM [mean of 6 tests]

**Q.** And the TGI (SK-MEL-2 melanoma)?
**A.** 1.71 µM [mean of 2 tests] and 0.163 nM [mean of 3 tests] and 4.16 µM [mean of 6 tests]

**Q.** What about the TGI (NCI-H522 lung) of the same molecule?
**A.** 29.8 µM [mean of 2 tests] and 1.53 µM [mean of 8 tests]

**Q.** And the GI50 (MOLT-4 leukemia)?
**A.** 122 nM [mean of 3 tests] and 0.921 nM, 18.4 nM [mean of 5 tests]

**Q.** And the TGI (MOLT-4 leukemia)?
**A.** 4.07 µM [mean of 3 tests] and 77.3 nM [mean of 5 tests]

**Q.** And the TGI (MALME-3M melanoma)?
**A.** 1.77 µM [1 test] and 0.346 nM [mean of 4 tests] and 3.27 µM [mean of 8 tests]

**Q.** What does the source list for `C/C=C(/C)C(=O)O[C@H]1[C@H](O)CC(c2ccc3c(c2O)C(O)=C2C(=O)C4(OC)C(O)=C(C(N)=O)C(=O)[C@H](CC(=O)c5ccccc5O)C4CC2[C@@]3(C)OC)O[C@@H]1C` (stereo partly drawn)?
**A.** TGI (NCI-H460 lung): 1.03 µM and 88.1 nM; TGI (RXF 393 renal): 1.56 µM and 134 nM; TGI (UACC-257 melanoma): 76.8 nM and 1.39 µM; TGI (HOP-62 NSCLC): 1.01 µM and 93.6 nM
